Experimental data taken from PubChem BioAssay AID651815 (National Center for Advancing Translational Sciences (NCATS), 2012).
Screen size: about 2,100 compounds; about 1,100 (52%) were called active. The set was probably picked from earlier hits. Inconclusive means that the source gave no clear call. Such entries were picked first, then a sample of the others. Calls come from the whole dose curve; as a rule, active = well fitted inhibition curve with a large enough effect; inconclusive = small, poorly fitted or top-dose-only effect; inactive = no such curve, though single readings can be large or run the other way. No potency is given beside an inconclusive call; the fits are too rough.

The compounds below were run against DNA dC->dU-editing enzyme APOBEC-3F (Homo sapiens) (UniProt Q8IUX4) (assay: qHTS for inhibitors of Vif-A3F interactions: Cherry picks counterscreen). Settings: HeLa A3F-eYFP/Vif cells, eYFP fluorescence, 24 h; series mostly up to 46.1 µM; activity, negative = inhibitor: at the top concentration.
UniProt Q8IUX4, sequence (Q8IUX4 whole entry, looked up): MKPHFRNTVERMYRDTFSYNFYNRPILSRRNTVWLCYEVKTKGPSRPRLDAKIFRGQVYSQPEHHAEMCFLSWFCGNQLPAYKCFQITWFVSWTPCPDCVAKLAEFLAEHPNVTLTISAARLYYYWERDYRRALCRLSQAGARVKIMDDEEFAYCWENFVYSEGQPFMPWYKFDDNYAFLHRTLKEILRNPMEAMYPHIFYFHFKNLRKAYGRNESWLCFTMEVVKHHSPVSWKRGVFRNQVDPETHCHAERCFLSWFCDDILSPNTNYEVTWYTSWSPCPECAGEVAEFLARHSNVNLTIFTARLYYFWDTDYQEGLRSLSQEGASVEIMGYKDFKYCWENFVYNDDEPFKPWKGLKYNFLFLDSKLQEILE
Procedure, shortened: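 Rescue of Vif-driven A3F-eYFP degradation read as cellular eYFP fluorescence after 24 h compound exposure (several concentrations) in stable HeLa cells; MG132 (2 mM stock) as positive control.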
% is set by controls: 0 for no effect and ±100 for the full control effect; potency is the fitted concentration of half-maximal effect; tags give direction and shape of the fitted curve.
Note: nearly all actives have a fitted effect of over 65% in size.

Structure (SMILES)	Potency	activity, negative = inhibitor
O=C(Cc1n[nH]c(=O)c2ccccc12)OCC(=O)c1ccc2c(c1)OCCO2	active: 2.8 µM	–
CCOC(=O)c1c(C)nc2sc(C(=O)Nc3ccc(OC)cc3)c(N)c2c1-c1ccc(OC)cc1	active: 2.8 µM	–
Cn1c(=O)c2c(nc(NC3CCCC3)n2C)n(C)c1=O	–	inactive: 7.15%
COc1ccc2nc(NC(=O)Nc3ccccc3OC)sc2c1	inconclusive [inhibitor, full curve]	–
COc1ccc(-c2[nH]ncc2N=Nc2ccccc2)cc1	inconclusive [inhibitor, single point]	–
Cc1ccc(N2C(=O)[C@@H]3[C@H](C2=O)[C@H]2C=C(C(=O)c4ccccc4)C=CN2[C@@H]3C(=O)c2ccc(Cl)cc2)cc1	–	inactive: -18.4%
O=C(C(=O)N1CCN(c2ccccc2Cl)CC1)c1c[nH]c2ccccc12	–	inactive: -0.112% [at 36.9 µM]
Cc1cc(-c2ccccc2)nc(N/N=C/c2ccccc2F)n1	inconclusive [inhibitor, single point]	–
COc1ccc2c(c1)c(C(=O)N/N=C/c1ccc(Cl)cc1)c(C)n2C	inconclusive [inhibitor, single point]	–
Cc1ccc(-c2csc(NC3OC(=O)c4ccccc43)n2)cc1 (stereo not given)	inconclusive [inhibitor, single point]	–
N#CCSc1ccccc1NC(=O)COC(=O)CCNC(=O)c1ccc([N+](=O)[O-])cc1	inconclusive [inhibitor, single point]	–
Nc1ncnc2c1ncn2[C@@H]1O[C@H](CNCc2ccc(OCc3ccccc3)cc2)[C@@H](O)[C@H]1O	inconclusive [inhibitor, single point]	–
COc1ccc(C(=O)c2sc3nc(C)cc(-c4cccs4)c3c2N)cc1	active: 20.6 µM	–
CCOC(=O)C1=C(Cc2ccc(Cl)cc2)C(=O)c2ccccc2C1=O	inconclusive [inhibitor, single point]	–
CC(=O)c1cccc(NC(=S)N2c3ccccc3CC2C)c1 (stereo not given)	–	inactive: 3.12% [at 36.9 µM]
CCN(CC)c1ccc(/C=N/NC(=O)c2ccco2)c(O)c1	inconclusive [inhibitor, full curve, poor fit]	–
O=C1OCC2=C1C(c1ccc3c(c1)OCO3)c1cc3c(cc1O2)OCO3 (stereo not given)	active: 1.25 µM	–
COc1cc(C(=O)Nc2ccc3c(c2)ncn3C)cc(OC)c1OC	active: 5.59 µM	–
CCN(C)c1ccc(/C=C/c2ccnc3ccccc23)cc1	active: 23.1 µM	–
CCOC(=O)c1ccc(NC(=S)NC(=O)C2CCCC2)cc1	–	inactive: -5.14%
Cc1ccccc1NC(=O)c1sc2nc3c(c(-c4ccco4)c2c1N)CCC3	–	inactive: -29.3% [at 36.9 µM]
Cc1nc2c3cc(F)ccc3n(Cc3ccccc3F)c2s1	active: 12.5 µM	–
CC(=O)Nc1ccc(S(=O)(=O)Nc2nc3ccccc3nc2Nc2ccc(N)cc2)cc1	inconclusive [inhibitor, partial curve]	–
COc1cc(C(=O)Nc2nnc(Cc3ccccc3)s2)cc(OC)c1OC	inconclusive [inhibitor, partial curve]	–

Structure (SMILES)	Potency	activity, negative = inhibitor
O=C(O)c1ccc(-c2ccc(/C=N/Nc3ccc([N+](=O)[O-])cc3)o2)cc1	inconclusive [inhibitor, single point]	–
CCC(=O)Nc1ccccc1-c1nc2ccccc2n(C(C)C(=O)Nc2ccc(OC)cc2)c1=O (stereo not given)	active: 16.4 µM	–
COc1ccc(-c2cc(NC=O)c3ncc(-c4cccc(C(F)(F)F)c4)n3c2)cc1OC	inconclusive [inhibitor, single point]	–
Cc1cccc(C)c1NC(=S)NC(C)CCc1ccccc1 (stereo not given)	–	inactive: -1%
N#Cc1cc2ccccc2nc1SCC(=O)Nc1ccccc1N1CCOCC1	–	inactive: -24.1%
COc1cc(OC)cc(C(=O)Nc2ccccc2C(=O)NC2CC2)c1	inconclusive [inhibitor, single point]	–
N#CC1=C(N)Oc2ccc3ccc(O)cc3c2C1c1ccsc1 (stereo not given)	–	inactive: -11.7% [at 36.9 µM]
O=C(Cn1ncc(Cl)c(Cl)c1=O)NCC1CCCCC1	inconclusive [inhibitor, single point]	–
Cc1[nH][nH]c(=O)c1C(c1c(C)[nH][nH]c1=O)c1cn(Cc2ccccc2Cl)c2ccccc12	inconclusive [inhibitor, partial curve]	–
CN1/C(=C/C=C(/C#N)C(N)=O)C(C)(C)c2ccccc21	active: 7.04 µM	–
Cc1ccc2c(/C=C/c3ccc(N(C)C)cc3)ccnc2c1	inconclusive [inhibitor, single point]	–
CCOC(=O)/C(=C/C1=CC(=C/N(C)C)/C(=O)O1)C(C)=O	–	inactive: 2.81%
CCN(CC)c1ccc2cc(-c3nc(-c4cc(OC)c(OC)c(OC)c4)no3)c(=O)oc2c1	inconclusive [inhibitor, full curve, poor fit]	–
N#C/C(=C/c1ccc(-c2ccc([N+](=O)[O-])cc2)o1)C(=O)Nc1nc(-c2cccs2)cs1	inconclusive [inhibitor, full curve]	–
CO/N=C/c1ccc(OC)c(Oc2nc(OC)cc(OC)n2)c1	inconclusive [inhibitor, partial curve]	–
CCN(Cc1ccccc1)c1ccc(/C=C(\C#N)c2ccccn2)cc1	–	inactive: -14.8%
O=C1C(=Cc2ccccc2[N+](=O)[O-])Cc2ccccc21	inconclusive [inhibitor, single point]	–
CCOc1ccccc1Nc1nnc(-c2cc3cc(Cl)ccc3oc2=O)s1	active: 5.17 µM	–
CC1=NN(c2ccccc2)C(=O)/C1=C/C=C/c1ccccc1	inconclusive [inhibitor, single point]	–
COc1cc(C(=O)N2CC(=O)Nc3ccccc32)cc(OC)c1OC	inconclusive [inhibitor, single point]	–
COc1cc(/C=C2/SC(=S)N(Cc3ccccc3)C2=O)cc(OC)c1O	inconclusive [inhibitor, partial curve, poor fit]	–
Cn1c(=S)c2[nH]c(SCCN3CCCC3)nc2n(C)c1=O	–	inactive: 5.61%
CC(=O)Oc1ccc(N2C(=O)c3cccc4c([N+](=O)[O-])ccc(c34)C2=O)cc1	–	inactive: 22.2%
O=C(Nc1nc2ccccc2s1)c1ccc([N+](=O)[O-])o1	inconclusive [inhibitor, single point]	–

Structure (SMILES)	Potency	activity, negative = inhibitor
Cc1ccc(NC(=S)N/N=C2\CCCCC2C)cc1 (stereo not given)	–	inactive: 13.9%
COc1cc(/C=C2\CC(C(C)(C)C)C/C(=C\c3cc(OC)c(OC)c(OC)c3)C2=O)cc(OC)c1OC (stereo not given)	inconclusive [inhibitor, full curve]	–
Cc1ccc(C(=O)N/C(=C/c2ccc(-c3ccc([N+](=O)[O-])cc3)o2)C(=O)NCCCN(C)C)cc1	inconclusive [inhibitor, single point]	–
CCOC(=O)c1c(CC(C)C)csc1/N=C/C1C(=O)CCCC1=O	–	inactive: -3.7%
CCOc1ccc(NC(=O)Cn2c(=O)n(Cc3ccc(C(=O)NCc4ccc(C)cc4)cc3)c(=O)c3ccccc32)cc1	active: 14.6 µM	–
Cc1cc(N2CCN(C)CC2)ccc1NC(=O)c1c2c(nc3ccccc13)CCN(Cc1ccccc1)C2	inconclusive [inhibitor, single point]	–
COc1ccc(NC(=O)N(Cc2cc3ccc(OC)cc3[nH]c2=O)CC2CCCO2)cc1 (stereo not given)	inconclusive [inhibitor, single point]	–
CCCN1CCc2c(sc(NC(=O)c3ccc(S(=O)(=O)N4CCN(C(=O)OCC)CC4)cc3)c2C(N)=O)C1	inconclusive [inhibitor, single point]	–
O=C(C[n+]1cccc2cccc(O)c21)c1ccc2ccccc2c1	inconclusive [inhibitor, single point]	–
Cc1cc(NC(=O)c2ccco2)cc(-c2nc3cc(Cl)ccc3o2)c1O	inconclusive [inhibitor, single point]	–
N#C/C(=C\c1ccc(Cl)cc1)c1nc2ncccc2[nH]1	active: 15.8 µM	–
COc1ccc(Cn2c(C)nc3c(c2=O)c2nc4ccccc4nc2n3Cc2ccco2)cc1	active: 18.4 µM	–
COc1ccccc1N1C(=O)C2C(C(=O)c3ccccc3)=NN(c3ccc(C)cc3)C2C1=O (stereo not given)	inconclusive [inhibitor, single point]	–
COCCCNc1nc2ccccc2nc1NS(=O)(=O)c1ccccc1	inconclusive [inhibitor, single point]	–
COc1ccc(NS(=O)(=O)c2cc(NC(=O)c3ccc(=O)[nH]c3)ccc2N2CCCC2)cc1	inconclusive [inhibitor, single point]	–
C/C(=N\Nc1nc(C)cc(-c2ccccc2)n1)c1ccc(F)cc1	–	inactive: -4.82%
Cc1cccc(CSc2cccc3cccnc23)c1	–	inactive: -23.1% [at 36.9 µM]
Cc1ccc(C)c(NC(=O)Cn2cc(S(=O)(=O)Cc3cccc(Cl)c3)c3ccccc32)c1	active: 6.51 µM	–
COc1ccc(-c2csc(-c3ccc(O)cc3)n2)cc1	inconclusive [inhibitor, full curve]	–
CN(C)S(=O)(=O)c1ccc2c(c1)/C(=C/c1cc3c([nH]1)CCCC3)C(=O)N2	active: 2.23 µM	–
C=C1C(=O)O[C@@H]2[C@H]1[C@@H](OC(=O)/C(C)=C/C)C/C(C)=C\C(=O)/C=C(\C)[C@@H]2O	inconclusive [inhibitor, full curve]	–
COc1cc(/C=C2\SC(=S)N(CCC(=O)Nc3ccccn3)C2=O)cc(OC)c1OC	inconclusive [inhibitor, single point]	–
